# Laboratory results from the antibiotic and cytotoxicity screens of Wong et al. (2023).
# Some of the results follow.
# Experiments:
# [1] = tested on: HSkMC (human skeletal muscle cells); assay: cytotoxicity call (relative viability < 0.9); conditions: 10 µM
# [2] = tested on: HepG2; assay: cytotoxicity call (relative viability < 0.9); conditions: 10 µM
# [3] = tested on: S. aureus RN4220; assay: growth inhibition call (relative growth <= 0.2); conditions: 50 µM
SMILES,cytotoxicity call [1],cytotoxicity call [2],growth inhibition call [3]
O=C(NNC(=O)C1CCNCC1)c1cccnc1,inactive,inactive,inactive
C[C@H]1CN([C@@H](C)CO)C(=O)c2cccc(NC(=O)Nc3ccc4c(c3)OCO4)c2O[C@H]1CN(C)S(C)(=O)=O,inactive,inactive,inactive
O=C1C[C@]2(c3ccc([N+](=O)[O-])cc3)C(=O)N(Cc3ccccc3)c3cc(CO)ccc3[C@H]2N1C1CCCCC1,inactive,inactive,inactive
CC(C)NC(=O)Nc1ccc2c(c1)C(=O)N([C@@H](C)CO)C[C@H](C)[C@H](CN(C)S(=O)(=O)c1cn(C)cn1)OCCCC[C@H](C)O2,inactive,inactive,inactive
CN(C)CCC(c1ccc(Br)cc1)c1ccccn1.O=C(O)C=CC(=O)O (stereo not drawn),inactive,active,inactive
O=C(C[C@@H]1C[C@@H]2c3cc(NC(=O)NC4CCCC4)ccc3O[C@@H]2[C@@H](CO)O1)NCc1ccc(Oc2ccccc2)cc1,inactive,inactive,inactive
CN(C)CCC=C1c2ccccc2C=Cc2ccccc21.Cl,inactive,active,inactive
C[C@H]1CN([C@@H](C)CO)C(=O)c2cc(NC(=O)Nc3cccc4ccccc34)ccc2O[C@H]1CN(C)C(=O)Nc1cccc2ccccc12,inactive,inactive,inactive
O=C(C[C@@H]1CC[C@@H](NC(=O)CN2CCOCC2)[C@@H](CO)O1)NC1CCC1,inactive,inactive,inactive
CCS(=O)(=O)Nc1ccc2c(c1)C(=O)N(C)[C@H]1CC[C@H](CC(=O)NCc3ccccc3F)O[C@H]1CO2,inactive,inactive,inactive
O=C(COc1ccccc1)Nc1nn[nH]n1,inactive,inactive,inactive
COc1cccc(S(=O)(=O)N(C)C[C@@H]2Oc3cc(C#CCC(C)C)ccc3S(=O)(=O)N([C@H](C)CO)C[C@@H]2C)c1,inactive,inactive,inactive
Cc1ccc(S(=O)(=O)N(C)C[C@H]2Oc3cc(Br)ccc3S(=O)(=O)N([C@H](C)CO)C[C@H]2C)cc1,inactive,inactive,inactive
CN(C)CC(=O)N1CCO[C@]2(COCCN(c3cncnc3)C2)C1,inactive,inactive,inactive
Cc1noc(C)c1S(=O)(=O)Nc1ccc2c(c1)C(=O)N([C@H](C)CO)C[C@@H](C)[C@@H](CN(C)C(=O)NC1CCCCC1)O2,inactive,inactive,inactive
Cc1noc(C)c1S(=O)(=O)Nc1ccc2c(c1)CC(=O)N([C@@H](C)CO)C[C@@H](C)[C@@H](CN(C)Cc1ccc(Oc3ccccc3)cc1)O2,inactive,active,inactive
C[C@H]1CN([C@@H](C)CO)C(=O)Cc2cc(NC(=O)Cn3cnnn3)ccc2O[C@H]1CN(C)C(=O)Nc1ccc(C(F)(F)F)cc1,inactive,inactive,inactive
CN(C)CC(=O)N[C@H]1CC[C@H](CCNC(=O)C2CCC2)O[C@H]1CO,inactive,inactive,inactive
COc1cccc(-c2cn(CC[C@H]3CC[C@@H](NC(=O)CN(C)C)[C@@H](CO)O3)nn2)c1,inactive,inactive,inactive
C[C@@H]1CCCCO[C@H](CN(C)C(=O)Cc2ccccc2)[C@H](C)CN([C@@H](C)CO)C(=O)c2cc(NS(=O)(=O)c3cccs3)ccc2O1,inactive,inactive,inactive
C[C@@H]1CN([C@H](C)CO)C(=O)Cc2cc(NC(=O)Cn3cnnn3)ccc2O[C@@H]1CN(C)C(=O)Nc1ccc(F)cc1,inactive,inactive,inactive
O=C(N[C@H]1CC=CC[C@H](CC(=O)N(CCO)Cc2ccccc2)C(=O)NCC(c2ccccc2)OC1=O)OCC1c2ccccc2-c2ccccc21 (stereo partly drawn),inactive,inactive,inactive
Cc1noc(C)c1NC(=O)Nc1ccc2c(c1)C(=O)N([C@@H](C)CO)C[C@H](C)[C@H](CN(C)C(=O)Nc1ccc(C(F)(F)F)cc1)OCCCC[C@H](C)O2,inactive,inactive,inactive
COc1ccccc1-c1cccc(-c2nc(C(=O)Nc3nccs3)cc3c2[C@H](CCO)N(C(=O)CC2CC2)C3)c1,inactive,inactive,inactive
C[C@@H]1CN([C@@H](C)CO)C(=O)c2cc(NC(=O)c3ccncc3)ccc2O[C@@H](C)CCCCO[C@H]1CN(C)Cc1ccccc1,inactive,inactive,inactive
C[C@@H]1CCCCO[C@@H](CN(C)Cc2ccc3c(c2)OCO3)[C@H](C)CN([C@H](C)CO)C(=O)c2cc(NC(=O)C3CCCCC3)ccc2O1,inactive,inactive,inactive
